Test results reported in PubChem BioAssay AID1745853 (National Center for Advancing Translational Sciences (NCATS), 2022).
“And” between values parts separate entries of the source, which are not always exact repeats. Equal entries are not always repeated. The list shows a part of the results. These are further read-outs of the screen, such as a control signal, another cell line or another target. No call is given for them.

Tests used:
Test in all cases: Primary Screen for Target Class Profiling of Small Molecule Inhibitors of Methyltransferases
[1] = target: Glycine N-methyltransferase (Homo sapiens) (UniProt Q14749); details: purified enzyme, MTase-Glo SAH luminescence; measured here: GNMT inhibition; at 40 µM; stronger effect = lower value
Summary of the method: (§1)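 Each enzyme was reacted with SAM and its substrate, with compounds tested once at 40 uM; SAH formed was read by MTase-Glo luminescence.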

[2] = target: Guanidinoacetate N-methyltransferase (Homo sapiens) (UniProt Q14353); details: purified enzyme, MTase-Glo SAH luminescence; measured here: GAMT inhibition; at 40 µM; stronger effect = lower value
Summary of the method: as §1

[3] = target: Histamine N-methyltransferase (Homo sapiens) (UniProt P50135); details: purified enzyme, MTase-Glo SAH luminescence; measured here: HNMT inhibition; at 40 µM; stronger effect = lower value
Summary of the method: as §1

[4] = target: Nicotinamide N-methyltransferase (Homo sapiens) (UniProt P40261); details: purified enzyme, MTase-Glo SAH luminescence; measured here: NNMT inhibition; at 40 µM; stronger effect = lower value
Summary of the method: as §1

[5] = target: Phenylethanolamine N-methyltransferase (Homo sapiens) (UniProt P11086); details: purified enzyme, MTase-Glo SAH luminescence; measured here: PNMT inhibition; at 40 µM; stronger effect = lower value
Summary of the method: as §1
On the % scale 0 is the no-effect control and ±100 the full control effect.

Structure (SMILES) | activity change, negative = inhibition [1] [%] | activity change, negative = inhibition [2] | activity change, negative = inhibition [3] [%] | activity change, negative = inhibition [4] | activity change, negative = inhibition [5]
CCOC(=O)c1cc(C#N)c(N2CCC(C(=O)NS(=O)(=O)Cc3ccccc3)CC2)nc1C | -2.12 | -4.77% | 10.7 | -12.9% | 1.06%
COC1(c2ccccc2)CCN(C(=O)C2CCCN(C(=O)N(C)C)C2)CC1 (stereo not drawn) | -4.02 | -10.3% | 0.195 | -7.82% | -3.66%
CCCn1c(=O)c2cc(F)ccc2n2c(SCC(=O)Nc3ccc4c(c3)OCO4)nnc12 | -4.21 | 0% | 9.87 | -0.565% | 2.8%
C=CCc1ccccc1OCCN(C)Cc1cc2ccc(F)cc2[nH]c1=O | -8.25 | 0.293% | -7.59 | -12.9% | -5.87%
COC(=O)c1ncn2c1C(=O)N(c1cccc(OC)c1)C(C)(C(=O)NCc1ccccc1OC)C2 (stereo not drawn) | 1.83 | 0.77% | 1.05 | 2.81% | 3.2%
CCCn1c(=O)c2cc(F)ccc2n2c(SCC(N)=O)nnc12 | -1.35 | 0% | 10.6 | 2.7% | 2.61%
O=C(O)c1cccnc1CN1CCCC(c2nc(-c3ccccc3)no2)C1 (stereo not drawn) | -7.26 | -5.67% | -2.73 | -7.77% | 10.1%
O=C(CCc1nnc2n(Cc3ccccc3)c(=O)c3ccccc3n12)NC1CCN(Cc2ccccc2)CC1 | -5.72 | 2.93% | -19.1 | -4.98% | -2.02%
CCCCNC(=O)C(C)n1ccc2cc(S(=O)(=O)N3CCCC3)ccc21 (stereo not drawn) | -0.341 | 3.34% | -3.42 | 1.72% | -1.01%
CN1Cc2ncnc(N3CCC(c4ccccc4)CC3)c2CN(c2ccccc2)C1=O | -10 | -6.55% | -5.03 | -18.1% | -9.11%
C[S+](=O)([O-])N1CC2(CCCN2CC2CC2)Cc2ccccc21 (stereo not drawn) | -6.75 | -11.7% | -11.7 | -11.1% | -8.81%
CCC(=C(c1ccc(OCCN2CCCC2)cc1)c1ccc(OCCN2CCCC2)cc1)c1ccccc1 | -2.51 | -0.972% | -87.4 | -15.2% | -1.33%
C#CCN(C)Cc1nc(C2(O)CCN(C(=O)c3ccccc3F)CC2)cs1 | -2.34 | -0.955% | 1.37 | -4.62% | -3.09%
COCCOCc1nc(C2CCCCN2C(=O)c2ccncc2)no1 (stereo not drawn) | -2.46 | -2.64% | -0.378 | -7.02% | -3.1%
COc1cc(N2CCOCC2)ccc1Nc1ncc(Cl)c(Nc2ccccc2NS(C)(=O)=O)n1 | -43.6 | -0.133% | 4.26 | -16.3% | -23.7%
Fc1ccccc1CN1CCC[C@H]1c1nc(-c2ccnc(N3CCOCC3)c2)no1 | -1.99 | 0.641% | -1.02 | -1.72% | 0.864%
Clc1ccc(CNc2nc3c(-c4ccccc4)nnn3c3ccccc23)cc1 | 0.436 | 0% | 5.28 | 4.25% | -1.25%
O=c1c2cccnc2n(-c2cccc([N+](=O)[O-])c2)c(=O)n1Cc1ccncc1 | 2.51 | 7.54% | 12 | -11.4% | 5.92%
O=C1NCC2(CCCN(C(=O)c3cn[nH]c3-n3cnnn3)C2)O1 (stereo not drawn) | -3.99 | -6.98% | -2.62 | -9.51% | -6.37%
O=C(c1n[nH]c2ccccc12)N1CCCC1c1nc(CCOCC2CCOCC2)no1 (stereo not drawn) | -3.77 | -7.82% | -1.18 | -9.73% | -3.97%

Structure (SMILES) | activity change, negative = inhibition [1] [%] | activity change, negative = inhibition [2] | activity change, negative = inhibition [3] [%] | activity change, negative = inhibition [4] | activity change, negative = inhibition [5]
CN(C)C(=O)Nc1cccc(-c2ccc(N(C)C)cc2)c1 | -2.32 | 1.49% | 3.99 | -13.5% | 1.63%
O=C1NCCOCCCN(C(=O)CC2CCCC2)[C@H]2CCC[C@@H]12 | -1.41 | 3.08% | 1.42 | -6.54% | -16.6%
CC(=O)Oc1ccc(C2Nc3ccc4ccccc4c3C3C=CCC32)c(OC(C)=O)c1 (stereo not drawn) | -11.1 | 0% | -13.2 | -19.1% | -17.4%
CCCCN1C(=O)c2ccc(-c3ccccc3)n2CC1(C)C(=O)NC1CCC(C)CC1 (stereo not drawn) | 7.04 | 1.7% | 5.53 | 4.06% | 4.61%
Cc1cc2[nH]c(=O)[nH]c2cc1S(=O)(=O)N1CCN(c2ccccc2F)CC1 | 15.7 | 2% | 11 | 2.46% | 6.08%
C=CC(C)(/C=C/c1ccc(O)cc1)CCC=C(C)C (stereo not drawn) |  | 3.21% |  | -14% | 2.94%
O=C1CCS(=O)(=O)N1c1ccc(S(=O)(=O)NCCN2CCOCC2)cc1 | 3.23 | -6.93% | 4.07 | 6.64% | -1.89%
CC(C)CC(=O)NC[C@@H]1C[C@H](F)CN1C(=O)CCCc1cccs1 | -2.71 | -8.88% | -2.29 | -15.3% | 10.1%
OC[C@H]1O[C@@H](Oc2cc(O)cc(-c3cc4ccc(O[C@@H]5O[C@H](CO)[C@@H](O)[C@H](O)[C@H]5O)cc4o3)c2)[C@H](O)[C@@H](O)[C@@H]1O | 1.18 | 7.55% | 10.9 | -4.27% | 8.18%
CCc1cc2c(cc3n2CC(C)(C(=O)NC2CCC(C)CC2)N(Cc2cccc(F)c2)C3=O)s1 (stereo not drawn) | 5.81 | 0% | 7.21 | 4.16% | -0.012%
CC1CCC2C(C(=O)O)=CC3C(O)C(C)(C)CC123 (stereo not drawn) | 2.9 | 5.48% | 8.87 | -7.64% | 0.018%
Cc1cccc(C)c1-c1nc(C(=O)N2CCN(c3ncccn3)CC2)n2ccccc12 | -5.15 | -3.23% | -9.78 | -26% | -0.816%
C/C=C/C=C/C(O)=C1/C(=O)[C@]2(C)C(=O)[C@@](C)(O)[C@H]1[C@H]([C@@]1(C)OC(=O)C(C)=C1O)[C@H]2C(=O)CC/C=C/C | -3.59 | 1.3% | 7.98 | -11.1% | -6.05%
NC(=O)NCC(=O)N1CC[C@@H]2[C@@H](CCC(=O)N2CCc2ccccn2)C1 | -1.45 | -0.562% | 1.14 | -0.474% | 1.33%
CCN1C(=O)c2cc(C(=O)Nc3cccc(Cl)c3C)nn2CC1(C)C(=O)NC1CCCC1 (stereo not drawn) | -3.98 | -3.43% | -12.3 | -1.03% | -5.45%
CN(C)[C@@H]1CN(C(=O)c2ccc(C#N)cc2)C[C@H]1CO | -4.88 | -1.96% | 0.087 | -1.14% | 0.327%
CC1COC2(OC3CC4C5CC(O[C@@H]6O[C@H](C)[C@@H](O[C@@H]7O[C@@H](C)[C@H](O)[C@@H](O)[C@H]7O)[C@H](O)[C@H]6O)C6CC(O)CCC6(C)C5CCC4(C)C3C2C)C(O)C1 (stereo partly drawn) | 2.99 | -0.391% | 6.45 | -10% | -3.53%
Cc1n[nH]c(C)c1CCC(=O)Nc1cccn2nc(C3CCC3)nc12 | -5.11 | -5.12% | -3.57 | -4.35% | -6.52%
COc1ccc(CNC(=O)c2sc3nc(C)cc(C)c3c2N)cc1 | -17.3 | -4.27% | -2.58 | -15.7% | -8.01%
CC1=C2C=C(CO)C(CO)CCC2(C)CCC1=O (stereo not drawn) | 1.49 | 7.06% | 4.38 | -6.55% | 3.85%

Structure (SMILES) | activity change, negative = inhibition [1] [%] | activity change, negative = inhibition [2] | activity change, negative = inhibition [3] [%] | activity change, negative = inhibition [4] | activity change, negative = inhibition [5]
CCc1ccc(N2C(=O)c3cc(C(C)(C)C)nn3CC2(C)C(=O)NC2CCCCC2)cc1 (stereo not drawn) | -9.02 | -3.22% | -3.84 | -9.84% | -6.73%
COc1ccc(-c2cc3onc(-c4ccncc4)c3c(=O)n2C)cc1 | -16.9 | -14% | -10.8 | -40.3% | -13.1%
CC1c2cccn2CCN1C(=O)Nc1ccc(F)cc1 (stereo not drawn) | -1.81 | 0% | 6.26 | -3.53% | 0.834%
CC(C)c1noc([C@@H]2C[C@H](NS(=O)(=O)Cc3ccccc3)CN2C)n1 | -2.08 | 0.835% | 0.693 | 1.52% | -1.3%
Cc1ccccc1Cn1nc2n(Cc3ccccc3)c(=O)c3ccc(C(=O)NCC(C)C)cc3n2c1=O | 3.67 | 0% | 9.05 | 1.33% | 4.86%
Cc1ccc(S(=O)(=O)c2nnn3c2nc(NCCCN2CCCC2=O)c2cc(Cl)ccc23)cc1C | -19 | 0.934% | -5.53 | -6.34% | -6.28%
Cc1ccc(C(=O)N2CCc3nc(-c4cn[nH]c4)[nH]c3C2)cc1N1CCNC1=O | -6.32 | -7.88% | -3.59 | -12.5% | -8.34%
O=C(CN1C(=O)COc2ccc(C(=O)COc3ccccc3F)cc21)Nc1ccc(F)cc1 | -6.5 | -3.73% | -0.54 | -9.03% | 3.56%
CC(=O)Nc1c2n(c3ccccc13)CC(C)(C(=O)NC1CCCCC1)N(Cc1ccccc1C)C2=O (stereo not drawn) | 2.83 | 0% | 5.24 | 7.79% | 3.1%
O=c1c2ccccc2n2c(SCc3cccc(F)c3)nnc2n1Cc1ccccc1 | -0.084 | -1.14% | -2.63 | -9.33% | -5.57%
CC1(C(=O)NC2CCCCCCC2)Cn2c(cc3occc32)C(=O)N1c1cccc(Cl)c1 (stereo not drawn) | -1.99 | -7.88% | 1.75 | -1.74% | -1.82%
Cc1noc(C)c1-c1cc2c(c(-c3ccccc3Oc3ccccc3)c1)C(=O)N(C)C2 | -19.6 | -11.3% | -24.7 | -25.4% | -8.79%
CCCn1c(=O)c2ccc(C(=O)NCC(C)C)cc2n2c(SCC(=O)Nc3ccc(CC)cc3)nnc12 | 5.1 | 4.54% | 5.85 | -11.2% | -0.594%
CCOC(=O)C[C@@H]1C[C@@H](C(C)C)[C@H](CNS(=O)(=O)c2ccccc2)C=C1C | -4.5 | -0.709% | -0.613 | -5.05% | -2.06%
C[C@@H]1C[C@H]2O[C@@H]2/C=C\C=C\C(=O)Cc2c(Cl)c(O)cc(O)c2C(=O)O1 | -5.03 | 2.29% and -2.91% | 2.28 | -8.13% and -17% | -0.97% and -8.81%
COC(=O)c1cccc(CNCC2=CC(C)(C)COc3ccc(OC)cc32)c1 | -3.59 | 2.5% | -7.26 | -16.4% | -2.34%
Cc1cccc(-c2nnn3c2nc(NCCc2ccc(S(N)(=O)=O)cc2)c2cc(Cl)ccc23)c1 | -6.01 | 0.105% | -5.99 | -15.4% | -8.39%
O=C(Cn1c(=O)oc2cc(S(=O)(=O)NC3CCCC3)ccc21)NCc1ccccc1Cl | -0.564 | 1.39% | 5.23 | 6.05% | -3.87%
Cc1ccccc1NC(=O)Cn1nc2n(CC(C)C)c(=O)c3ccc(C(=O)NC4CCCC4)cc3n2c1=O | 7.37 | 2.19% | 12.5 | 6.58% | 7.67%
O=C(c1ccccc1)N1CCCC(C(=O)N2CCC(c3nc4ccncc4[nH]3)C2)C1 (stereo not drawn) | -6.99 | -5.91% | -6.71 | -15% | 1.89%
